The other results are listed elsewhere or left out. Repeats are few or missing, and single values can be far off.
Key:
Test in all cases: cell count relative to DMSO control; melanoma cells; higher = more viable cells
Conditions in all cases: library dose: standard library concentration; 72 h
G361 = tested on: G361
IPC-298 = tested on: IPC-298
IST-MEL1 = tested on: IST-MEL1
LB2518-MEL = tested on: LB2518-MEL
LOXIMVI = tested on: LOXIMVI
MEL-HO = tested on: MEL-HO
MZ2-MEL = tested on: MZ2-MEL
MeWo = tested on: MeWo
RPMI7951 = tested on: RPMI7951
RVH-421 = tested on: RVH-421
SkMel28 = tested on: SkMel28
SkMel2 = tested on: SkMel2
SkMel30 = tested on: SkMel30
SkMel5 = tested on: SkMel5
UACC257 = tested on: UACC257
UACC62 = tested on: UACC62
WM115 = tested on: WM115
WM1716 = tested on: WM1716
WM1745 = tested on: WM1745
WM3526 = tested on: WM3526
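Note: cells treated in 1,536-well plates, then fixed and DAPI-stained, with nuclei counted from automated high-throughput microscope images.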

Compound | cell count (G361) [%] | cell count (IPC-298) [%] | cell count (IST-MEL1) [%] | cell count (LB2518-MEL) [%] | cell count (LOXIMVI) [%] | cell count (MEL-HO) [%] | cell count (MZ2-MEL) [%] | cell count (MeWo) [%] | cell count (RPMI7951) [%] | cell count (RVH-421) [%] | cell count (SkMel28) [%] | cell count (SkMel2) [%] | cell count (SkMel30) [%] | cell count (SkMel5) [%] | cell count (UACC257) [%] | cell count (UACC62) [%] | cell count (WM115) [%] | cell count (WM1716) [%] | cell count (WM1745) [%] | cell count (WM3526) [%]
O=C(Nc1cccc(Cl)c1)Nc1ncc(CCNc2ncnc3ccsc23)s1 + COc1cc2c(Oc3ccc4[nH]c(C)cc4c3F)ncnc2cc1OCCCN1CCCC1 [cediranib] (first compound 0.004 µM, partner dose 2 µM) | 101 | 104 | 69.6 | 67.3 | 99 | 90.6 | 93.6 | 79.7 | 60.3 | 81 | 46.3 | 96.3 | 121 | 100 | 73.9 | 87 | 59.4 | 94.2 | 85.3 | 77.2
Cn1cncc1[C@@](N)(c1ccc(Cl)cc1)c1ccc2c(c1)c(-c1cccc(Cl)c1)cc(=O)n2C [tipifarnib] + COc1ccc(COc2ccc(Cc3cnc(N)nc3N)cc2OC)cc1 [GW2580] (first compound 0.05 µM, partner dose 5 µM) | 77.4 | 77.7 | 88.5 | 71.3 | 47.3 | 82.4 | 78.4 | 87.3 | 74 | 82.3 | 51.6 | 69.7 | 86.9 | 63.3 | 74 | 71.8 | 79.7 | 65.5 | 96.1 | 76.3
O=c1[nH]nc(Sc2ncc([N+](=O)[O-])s2)n1-c1ccc2c(c1)OCCO2 + O=C(Nc1cccc(Cl)c1)Nc1ncc(CCNc2ncnc3ccsc23)s1 [SNS314] (first compound 1 µM, partner dose 0.004 µM) | 64.4 | 102 | 63.2 | 80 | 81.4 | 80.4 | 105 | 72.9 | 46.5 | 74.4 | 26.3 | 72.3 | 82.7 | 89.5 | 76 | 95.7 | 33.5 | 70.9 | 66.6 | 83.4
C[C@@H]1CCN(C(=O)CC#N)C[C@@H]1N(C)c1ncnc2[nH]ccc12 + Oc1nc(-c2ccc(C(F)(F)F)cc2)nc2c1CSCC2 [XAV939] (first compound 5 µM, partner dose 10 µM) | 95.6 | 83.9 | 87.8 | 82.5 | 92.5 | 79.7 | 108 | 99.5 | 66.5 | 98.8 | 62.5 | 86.1 | 90.7 | 71.3 | 81.6 | 83.9 | 88.9 | 75.9 | 74.6 | 92.4
O=c1[nH]nc(Sc2ncc([N+](=O)[O-])s2)n1-c1ccc2c(c1)OCCO2 + Cn1sc(=O)n(Cc2ccccc2)c1=O [TDZD-8] (first compound 1 µM, partner dose 2 µM) | 64.7 | 72.8 | 69.2 | 104 | 36.9 | 92.2 | 85.2 | 61.2 | 3.98 | 27 | 29.5 | 78.1 | 57 | 54.3 | 85 | 39.4 | 87.5 | 25.1 | 70.7 | 80.2
O=C(O)c1ccc(-c2c[nH]c3ncc(-c4ccccc4)cc23)cc1C1CCCC1 + COc1cc2ncnc(Nc3ccc(Oc4ccccc4)cc3)c2cc1OC [SrcI1] (first compound 0.8 µM, partner dose 10 µM) | 57 | 67 | 78.6 | 111 | 73.5 | 69 | 75.3 | 65.7 | 50.1 | 85.4 | 58.2 | 71.2 | 91.7 | 51.6 | 61.9 | 79.2 | 85.3 | 71.8 | 75.5 | 51.7
COc1cc(Nc2ncc(F)c(Nc3ccc4c(n3)NC(=O)C(C)(C)O4)n2)cc(OC)c1OC [Tamatinib] + C[C@@H]1CCN(C(=O)CC#N)C[C@@H]1N(C)c1ncnc2[nH]ccc12 [CP690550] (first compound 2 µM, partner dose 5 µM) | 79.8 | 88.6 | 57.6 | 83.6 | 28.6 | 72.3 | 84 | 69 | 38 | 102 | 53.8 | 70.2 | 85.6 | 68.6 | 77 | 90.7 | 80.1 | 65.2 | 48.7 | 72.7
O=c1[nH]nc(Sc2ncc([N+](=O)[O-])s2)n1-c1ccc2c(c1)OCCO2 + Cc1ccc(Nc2nccc(N(C)c3ccc4c(C)n(C)nc4c3)n2)cc1S(N)(=O)=O [Pazopanib] (first compound 1 µM, partner dose 2 µM) | 97.9 | 73.6 | 107 | 81.5 | 129 | 93.8 | 82.3 | 114 | 89.5 | 103 | 93.6 | 113 | 81.1 | 72.2 | 78.9 | 87.9 | 83.9 | 78.2 | 95.5 | 78
O=c1[nH]nc(Sc2ncc([N+](=O)[O-])s2)n1-c1ccc2c(c1)OCCO2 + Nc1ccn([C@@H]2O[C@H](CO)[C@@H](O)C2(F)F)c(=O)n1 [gemcitabine] (first compound 1 µM, partner dose 0.002 µM) | 45.5 | 42.7 | 44.1 | 59.3 | 50.3 | 54.5 | 72.6 | 44.3 | 63.8 | 52.3 | 83.9 | 92.8 | 91.1 | 85 | 103 | 75.8 | 81.9 | 73.4 | 58 | 84.3
COc1cc(Nc2ncc(F)c(Nc3ccc4c(n3)NC(=O)C(C)(C)O4)n2)cc(OC)c1OC [Tamatinib] + COc1cc2c(Oc3ccc4[nH]c(C)cc4c3F)ncnc2cc1OCCCN1CCCC1 [cediranib] (first compound 2 µM, partner dose 2 µM) | 70.8 | 85.8 | 113 | 76.6 | 29.1 | 62.1 | 76.4 | 73.4 | 29.9 | 46.9 | 56 | 71 | 79.7 | 59.9 | 70.7 | 69.3 | 90.7 | 65.1 | 46.2 | 64.8
CC1(C)NC(=O)N(c2ccc([N+](=O)[O-])c(C(F)(F)F)c2)C1=O [nilutamide] + CCc1ccc(CCOc2ccc(CC3SC(=O)NC3=O)cc2)nc1 [pioglitazone] (first compound 5 µM, partner dose 10 µM) | 83.9 | 78.8 | 91.3 | 71.9 | 101 | 83.1 | 84.3 | 86.2 | 108 | 113 | 65.6 | 86.8 | 102 | 80.7 | 88.6 | 89.1 | 98.4 | 107 | 68.6 | 81.4
O=c1[nH]nc(Sc2ncc([N+](=O)[O-])s2)n1-c1ccc2c(c1)OCCO2 + CO[C@@H]1[C@H](N(C)C(=O)c2ccccc2)C[C@H]2O[C@]1(C)n1c3ccccc3c3c4c(c5c6ccccc6n2c5c31)C(=O)NC4 [Midostaurin] (first compound 1 µM, partner dose 0.4 µM) | 55.5 | 64.4 | 57.8 | 48.5 | 75.4 | 75 | 56.9 | 75.6 | 165 | 60.5 | 60.4 | 48.7 | 84 | 65.2 | 77.1 | 63.6 | 46.3 | 62.7 | 40.7 | 99.8
O=C(O)c1ccc(-c2c[nH]c3ncc(-c4ccccc4)cc23)cc1C1CCCC1 + CN(NC(=O)CC(=O)NN(C)C(=S)c1ccccc1)C(=S)c1ccccc1 [STA4783] (first compound 0.8 µM, partner dose 0.03 µM) | 33.4 | 61.4 | 9.29 | 27.3 | 55.4 | 64.1 | 102 | 20.2 | 41.7 | 44.7 | 21.3 | 65 | 82.4 | 35.6 | 67.3 | 62.2 | 22.2 | 59.5 | 25 | 73.9
O=C(Nc1cccc(Cl)c1)Nc1ncc(CCNc2ncnc3ccsc23)s1 + O=C(O)C(=O)Nc1sc2c(c1C(=O)O)CCNC2 [TCS401] (first compound 0.004 µM, partner dose 8.33333 µM) | 67.1 | 86.7 | 74.3 | 71.7 | 97.8 | 75.3 | 77.9 | 53.8 | 71.6 | 80.7 | 60.9 | 91.6 | 97.1 | 75.7 | 71.1 | 97.6 | 46.6 | 74.1 | 87.7 | 60.4
CC1(C)NC(=O)N(c2ccc([N+](=O)[O-])c(C(F)(F)F)c2)C1=O [nilutamide] + O=C(Nc1cccc(Cl)c1)Nc1ncc(CCNc2ncnc3ccsc23)s1 [SNS314] (first compound 5 µM, partner dose 0.004 µM) | 69.5 | 82 | 61.3 | 90.4 | 64.3 | 79.2 | 78.2 | 64.2 | 68.5 | 69.6 | 41.6 | 68.5 | 97.9 | 93.4 | 72.2 | 72.2 | 45.7 | 42.4 | 108 | 68
CC1(C)NC(=O)N(c2ccc([N+](=O)[O-])c(C(F)(F)F)c2)C1=O [nilutamide] + CCN(CC)CCCCNc1ncc2cc(-c3cc(OC)cc(OC)c3)c(NC(=O)NC(C)(C)C)nc2n1 [PD173074] (first compound 5 µM, partner dose 0.5 µM) | 85.4 | 102 | 102 | 98.1 | 69 | 109 | 108 | 102 | 141 | 101 | 110 | 107 | 118 | 104 | 101 | 85.7 | 99.1 | 115 | 115 | 88.4
C[C@@H]1CCN(C(=O)CC#N)C[C@@H]1N(C)c1ncnc2[nH]ccc12 + CCN(CC)CCCCNc1ncc2cc(-c3cc(OC)cc(OC)c3)c(NC(=O)NC(C)(C)C)nc2n1 [PD173074] (first compound 5 µM, partner dose 0.5 µM) | 102 | 101 | 107 | 88 | 78.6 | 113 | 98.7 | 101 | 79.5 | 93.9 | 68.6 | 86 | 105 | 71.5 | 107 | 92.9 | 103 | 86.1 | 77.8 | 91.6
O=C(O)c1ccc(-c2c[nH]c3ncc(-c4ccccc4)cc23)cc1C1CCCC1 + COc1ccc(COc2ccc(Cc3cnc(N)nc3N)cc2OC)cc1 [GW2580] (first compound 0.8 µM, partner dose 5 µM) | 69.1 | 78.4 | 98.7 | 105 | 91.9 | 79.7 | 79.4 | 72.6 | 89.9 | 111 | 67.5 | 68.2 | 76.4 | 59.8 | 72 | 70.3 | 82.8 | 76.4 | 92.5 | 68.1

Source: the supplement of paper PMC4604168 (melanoma cell lines)
